Test results reported in the supplement of paper PMC3334620.
The full ranking holds about 33,000 sequences; the median of “E-score (-0.5 to 0.5)” is about -0.043, and the highest 2% start at about 0.37. This is one part of the list.

target: T1, Upc2 (UniProt Q12151); assay: PBM E-score (8-mer binding enrichment) (E-score (-0.5 to 0.5)); higher = stronger / more preferred TF binding; most listed sequences are background and not binding sites; details: protein concentration: 200 nM; construct: GST-full length
T1 sequence: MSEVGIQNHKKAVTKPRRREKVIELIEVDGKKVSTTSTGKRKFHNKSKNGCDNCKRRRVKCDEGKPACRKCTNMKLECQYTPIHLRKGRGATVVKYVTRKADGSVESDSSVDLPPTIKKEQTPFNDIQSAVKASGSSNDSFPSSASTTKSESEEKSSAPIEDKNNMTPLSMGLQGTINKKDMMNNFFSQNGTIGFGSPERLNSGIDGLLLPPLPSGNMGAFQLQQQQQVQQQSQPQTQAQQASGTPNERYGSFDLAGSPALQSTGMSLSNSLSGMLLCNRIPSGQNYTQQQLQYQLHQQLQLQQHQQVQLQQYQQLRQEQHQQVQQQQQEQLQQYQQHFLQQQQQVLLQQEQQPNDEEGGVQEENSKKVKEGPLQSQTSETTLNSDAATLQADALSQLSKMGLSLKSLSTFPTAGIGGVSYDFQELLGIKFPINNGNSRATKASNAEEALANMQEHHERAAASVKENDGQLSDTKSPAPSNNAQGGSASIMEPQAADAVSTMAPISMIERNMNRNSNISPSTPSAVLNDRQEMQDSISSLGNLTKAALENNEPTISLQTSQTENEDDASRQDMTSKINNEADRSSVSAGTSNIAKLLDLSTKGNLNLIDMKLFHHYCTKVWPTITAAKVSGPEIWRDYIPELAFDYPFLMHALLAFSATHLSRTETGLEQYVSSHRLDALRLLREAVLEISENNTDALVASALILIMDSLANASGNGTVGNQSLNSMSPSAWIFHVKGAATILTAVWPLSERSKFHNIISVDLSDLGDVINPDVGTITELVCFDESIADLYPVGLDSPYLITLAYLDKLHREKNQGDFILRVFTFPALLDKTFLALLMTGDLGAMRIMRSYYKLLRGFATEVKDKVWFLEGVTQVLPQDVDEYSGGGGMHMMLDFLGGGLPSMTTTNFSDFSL
Method in brief: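 E-scores (a modified Wilcoxon-Mann-Whitney statistic) were assigned by the Universal PBM Analysis Suite to every ungapped eight-base word pooled with its reverse complement. The input came from universal all-10-mer Agilent arrays made double-stranded by primer extension and probed with GST-tagged yeast transcription factors at about 100-200 nM. Fluorescent anti-GST detected bound protein, and masliner normalised the scans.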

Sequence	PBM E-score
CCTTGGCG	-0.0871
CGAATAGA	0.167
ACTTATTA	-0.00569
ACCAGTTC	-0.0843
CATAAGCG	0.13
ATCTAGTA	0.171
GTCCGTAA	0.279
CCGGAGAA	-0.0173
CGTGTGAC	-0.0865
GCCATCCA	-0.197
ATCAGGGA	-0.189
AAGTTGGC	-0.124
ATGCTATG	-0.0709
GCTGTTCC	-0.178
ATTCGTCC	0.0624
ATATACGA	0.492
CGCAGCGC	0.00979
ATAGCGAC	0.17
ACATGTCT	-0.0129
AAAGTGAG	-0.0574
AGAGGGCA	-0.369
GCGCCCAC	-0.143
ACGAAACT	0.382
CTAGTGGA	-0.212
AATGCTAC	0.0344

Sequence	PBM E-score
CGCATTCA	-0.00072
GTCTCTTA	0.224
AAGCAACG	0.0123
GAACCGCA	0.00543
AACCTAGA	-0.0534
ATGACTGA	-0.212
ATTTAATG	0.0817
ATGTAGCC	-0.221
ACATTGGA	-0.219
ACGAAGCT	0.307
AGAGCCGC	-0.201
CCGCAACA	-0.00775
CGCATCAG	0.0112
CCGTTCTA	0.096
CGCGCCAA	0.146
TGAAGGAA	-0.134
ACGGGTCG	0.309
ATATCACC	0.0514
GCTGATCA	-0.171
TATTGAAA	0.0372
ATTCTTGA	-0.00327
ATTGCCCG	0.0261
AGCGCTGA	0.0452
CATGGCAG	-0.0996
ATCAACCA	-0.186

Sequence	PBM E-score
CCGAGCCG	0.106
CCGGTTAC	0.202
ATGATCAA	-0.00713
GGTCCTAC	-0.129
GGGCGTCA	-0.223
GCCGCCAA	-0.0764
GATTTCAC	-0.0136
CGCAAATA	0.0612
CCCTCACC	-0.241
GAACATGC	-0.031
CAATCGCC	-0.00123
AGCGATCG	0.215
ATCAGCAC	-0.101
AATTCAAT	0.103
AGTCGAAC	0.0362
ACGAAATC	0.286
GCGCGGCC	-0.0982
ACGCCCTG	0.0275
CATGCGCA	-0.132
AATGGGCT	-0.0961
TGGGGTAA	0.0421
CCGACGCA	-0.0765
AACCGGAA	0.143
ACCCAATA	-0.0303
AGCGCTGC	-0.137

Sequence	PBM E-score
CAACACAA	0.0721
ATAACATG	-0.113
GATAATAC	-0.0546
ATACATAT	0.128
AATGTAAG	0.0556
ACGCAGGA	0.0909
AAGAGGGG	-0.0457
CCGCGTCG	0.0115
GCTTTAAA	0.036
CATGTGTA	0.041
AGGCCAAG	-0.17
AGGAGCAC	-0.0424
AACAGGGA	-0.0461
CGAATGCA	0.16
CAGAGTGC	-0.192
AGCCTCTA	-0.151
CCCACCCC	0.033
ACATCTTG	-0.155
AGATATTC	-0.25
AATAAACG	0.429
GGCTCGTA	0.472
GTTTACAA	0.164
CTCATTAC	0.0555
TCCGCCAA	-0.216
GGCATGCA	0.0402

Sequence	PBM E-score
ACGGCCTC	0.174
ACTTGCTG	-0.221
AACCCTAC	-0.147
ATGGACCC	-0.159
ATTATACG	0.482
CTGAAGAC	-0.078
CCGAGTAA	0.231
GGTCACAC	-0.153
ACGACTTA	0.357
GACTGCAC	-0.101
CCAGACAA	-0.0816
TACTACGA	0.241
TAACCCGA	0.147
TCCTCTAA	-0.14
TAGGGTGA	-0.106
CTACCCTA	-0.185
ACAAATAC	0.158
ATCGGGAC	-0.0497
CGTCTCCA	-0.0186
AAGGGATC	0.138
CGGAGATA	0.252
AGTCCAGA	-0.166
AGGAGCTA	-0.158
ATCCCGTA	0.373
CAGCACCG	-0.18

Sequence	PBM E-score
CAGTAGGG	-0.253
ATAGTCGG	-0.0606
GGCGCGGA	-0.177
ACGTCCCC	0.0823
AGTGTGAC	-0.142
ATCCTAGA	-0.133
AGGGTACG	0.364
ACAGTAGA	-0.0149
CAGTACAG	0.0309
AATTAGTC	0.00586
AATCCCCT	-0.164
GCCCAACA	-0.0641
CAGGCTTC	-0.121
CAGTGCGA	-0.0196
CCGAAGCC	-0.139
AGCTGATG	-0.114
CCGGACTC	-0.134
AAGGGCAT	-0.29
AGTCCGAT	0.0136
AATCACAA	-0.0387
GTCTCAAC	-0.0784
ACTGGTCA	-0.0573
GATTATAA	0.132
AGCGGTAC	0.262
AAAGGATA	0.0822

Sequence	PBM E-score
ATTGAGAG	-0.11
GCAGAGAA	-0.115
GCCGGTCC	-0.259
CGGCTCAC	-0.161
CCGGGGAA	-0.23
CGCGAGCC	0.225
AATGGAAA	-0.166
CATCTTAG	-0.0125
GTTTACCA	0.266
ATCGATAG	-0.0178
ACTCCTGC	-0.0877
AAGCAGAG	-0.114
ATCTCGGG	-0.0286
GCAGACCA	-0.171
ACGCGACA	0.129
GCACTTTA	0.0116
ACGCGACT	0.0452
GCGTGGTA	-0.0682
ACGAGGAA	0.359
ATCACCTC	0.0142
GTAGGGGA	-0.223
ATGCCAAT	-0.253
